Some of the results follow. Interaction screen of human proteins with wild-type SARS-CoV-2 proteins by split-DHFR complementation in yeast, 1 µg/mL methotrexate. Value = fitness of the pair (three or more lineages) minus that of the viral protein without a human partner, on a scale set by negative (0) and fused positive (1) controls, mean of up to three cultures; higher = more likely to interact. Active = false discovery rate below 0.05 (one-sided t-test) in at least one culture. Nearly all pairs are not hits, and differences among them are mostly noise (correlation between cultures about 0.3); most hits were seen in one culture only. Human sequences are the Swiss-Prot entries looked up by gene name; the clone may be another isoform. NSP2 values were corrected by the authors for a growth advantage. Listed are human proteins with a hit and a random twelfth of the others.
B1: ARMCX3, Q9UH62 (protein)
chain: MGYARKVGWVTAGLVIGAGACYCIYRLTRGRKQNKEKMAEGGSGDVDDAGDCSGARYNDWSDDDDDSNESKSIVWYPPWARIGTEAGTRARARARARATRARRAVQKRASPNSDDTVLSPQELQKVLCLVEMSEKPYILEAALIALGNNAAYAFNRDIIRDLGGLPIVAKILNTRDPIVKEKALIVLNNLSVNAENQRRLKVYMNQVCDDTITSRLNSSVQLAGLRLLTNMTVTNEYQHMLANSISDFFRLFSAGNEETKLQVLKLLLNLAENPAMTRELLRAQVPSSLGSLFNKKENKEVILKLLVIFENINDNFKWEENEPTQNQFGEGSLFFFLKEFQVCADKVLGIESHHDFLVKVKVGKFMAKLAEHMFPKSQE
B2: KRT79, Q5XKE5 (protein)
chain: MRSSVSRQTYSTKGGFSSNSASGGSGSQARTSFSSVTVSRSSGSGGGAHCGPGTGGFGSRSLYNLGGHKSISVSVAGGALLGRALGGFGFGSRAFMGQGAGRQTFGPACPPGGIQEVTVNQSLLTPLHVEIDPEIQRVRTQEREQIKTLNNKFASFIDKVRFLEQQNKVLETKWALLQEQGQNLGVTRNNLEPLFEAYLGSMRSTLDRLQSERGRLDSELRNVQDLVEDFKNKYEDEINKHTAAENEFVVLKKDVDAAYMGRMDLHGKVGTLTQEIDFLQQLYEMELSQVQTHVSNTNVVLSMDNNRNLDLDSIIAEVKAQYELIAQRSRAEAEAWYQTKYEELQVTAGKHGDNLRDTKNEIAELTRTIQRLQGEADAAKKQCQQLQTAIAEAEQRGELALKDAQKKLGDLDVALHQAKEDLTRLLRDYQELMNVKLALDVEIATYRKLLESEESRMSGECPSAVSISVTGNSTTVCGGGAASFGGGISLGGSGGATKGGFSTNVGYSTVKGGPVSAGTSILRKTTTVKTSSQRY

What follows are binders tested against SARS-CoV-2 E (assay: yeast fitness gain over the viral ORF with no human partner (scaled fitness); higher = more likely to interact).
Method: (§1)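 Split mouse DHFR complementation in pooled diploid yeast: human ORFeome clones carry one fragment and viral ORFs the other; barcoded lineages compete in 1 µg/mL methotrexate and fitness is read by barcode sequencing in up to three cultures.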
In the case of B1, the yeast fitness gain is reported as inactive: 0.0479. In the case of B2, the yeast fitness gain is reported as inactive: 0.00711.

What follows are binders tested against SARS-CoV-2 M in the same assay as above.
Method: as §1
In the case of B1, the yeast fitness gain is reported as inactive: -0.0117. In the case of B2, the yeast fitness gain is reported as inactive: 0.00551.

The binders below were run against SARS-CoV-2 N in the same assay as above.
Method: as §1
For B1, the yeast fitness gain was inactive: 0.00763. In the case of B2, the yeast fitness gain is reported as inactive: 0.0879.

Each binder was assayed against SARS-CoV-2 NSP1 in the same assay as above.
Method: as §1
B1 was tested, and the yeast fitness gain was inactive: 0.00206. B2 was tested, and the yeast fitness gain was inactive: -0.00385.

These binders were tested against SARS-CoV-2 NSP10 in the same assay as above.
Method: as §1
In the case of B1, the yeast fitness gain is reported as inactive: 0.0101. B2 was tested, and the yeast fitness gain was inactive: 0.00965.

What follows are binders tested against SARS-CoV-2 NSP12 in the same assay as above.
Method: as §1
With B1 the yeast fitness gain was inactive: 0.0219. In the case of B2, the yeast fitness gain is reported as inactive: 0.0377.

The binders below were run against SARS-CoV-2 NSP13 in the same assay as above.
Method: as §1
B1 was tested, and the yeast fitness gain was inactive: 0.0507. B2 was tested, and the yeast fitness gain was active: 0.0782.

The binders below were run against SARS-CoV-2 NSP15 in the same assay as above.
Method: as §1
With B1 the yeast fitness gain was inactive: -0.0364. In the case of B2, the yeast fitness gain is reported as inactive: -0.0218.

Each binder was assayed against SARS-CoV-2 NSP16 in the same assay as above.
Method: as §1
With B1 the yeast fitness gain was inactive: 0.00744. With B2 the yeast fitness gain was inactive: 0.0118.

These binders were tested against SARS-CoV-2 NSP2 in the same assay as above.
Method: as §1
For B1, the yeast fitness gain was inactive: -0.0592. In the case of B2, the yeast fitness gain is reported as inactive: -0.109.

What follows are binders tested against SARS-CoV-2 NSP4 in the same assay as above.
Method: as §1
With B1 the yeast fitness gain was inactive: -0.0467. B2 was tested, and the yeast fitness gain was inactive: 0.11.

The binders below were run against SARS-CoV-2 NSP5 in the same assay as above.
Method: as §1
B1 was tested, and the yeast fitness gain was inactive: -0.0216. For B2, the yeast fitness gain was inactive: -0.0123.

What follows are binders tested against SARS-CoV-2 NSP6 in the same assay as above.
Method: as §1
B1 was tested, and the yeast fitness gain was inactive: 0.0265. In the case of B2, the yeast fitness gain is reported as inactive: 0.0538.

These binders were tested against SARS-CoV-2 NSP7 in the same assay as above.
Method: as §1
With B1 the yeast fitness gain was inactive: 0.0399. With B2 the yeast fitness gain was inactive: 0.0348.

The binders below were run against SARS-CoV-2 NSP8 in the same assay as above.
Method: as §1
With B1 the yeast fitness gain was inactive: -0.076. In the case of B2, the yeast fitness gain is reported as inactive: 0.0118.

What follows are binders tested against SARS-CoV-2 NSP9 in the same assay as above.
Method: as §1
B1 was tested, and the yeast fitness gain was inactive: -0.113. With B2 the yeast fitness gain was inactive: 0.0401.

What follows are binders tested against SARS-CoV-2 ORF10 in the same assay as above.
Method: as §1
For B1, the yeast fitness gain was inactive: 0.0363. With B2 the yeast fitness gain was inactive: 0.0289.

What follows are binders tested against SARS-CoV-2 ORF3B in the same assay as above.
Method: as §1
B1 was tested, and the yeast fitness gain was inactive: -0.0202. In the case of B2, the yeast fitness gain is reported as inactive: 0.0343.

These binders were tested against SARS-CoV-2 ORF6 in the same assay as above.
Method: as §1
B1 was tested, and the yeast fitness gain was inactive: 0.0451. B2 was tested, and the yeast fitness gain was inactive: 0.0268.

What follows are binders tested against SARS-CoV-2 ORF7A in the same assay as above.
Method: as §1
For B1, the yeast fitness gain was inactive: -0.00918. For B2, the yeast fitness gain was inactive: -0.00131.

These binders were tested against SARS-CoV-2 ORF7B in the same assay as above.
Method: as §1
With B1 the yeast fitness gain was inactive: 0.0333. B2 was tested, and the yeast fitness gain was inactive: 0.0126.

These binders were tested against SARS-CoV-2 ORF8 in the same assay as above.
Method: as §1
For B1, the yeast fitness gain was inactive: 0.0153. In the case of B2, the yeast fitness gain is reported as inactive: 0.065.

Each binder was assayed against SARS-CoV-2 ORF9B in the same assay as above.
Method: as §1
B1 was tested, and the yeast fitness gain was inactive: 0.0528. In the case of B2, the yeast fitness gain is reported as inactive: 0.0272.

Each binder was assayed against SARS-CoV-2 ORF9Bwu (the 73-codon ORF) in the same assay as above.
Method: as §1
B1 was tested, and the yeast fitness gain was inactive: -0.00318. With B2 the yeast fitness gain was inactive: 0.00191.

What follows are binders tested against SARS-CoV-2 S in the same assay as above.
Method: as §1
With B1 the yeast fitness gain was inactive: 0.0536. In the case of B2, the yeast fitness gain is reported as inactive: -0.00135.

Each binder was assayed against SARS-CoV-2 NSP14 in the same assay as above.
Method: as §1
For B2, the yeast fitness gain was inactive: 0.0805.

The binders below were run against SARS-CoV-2 ORF3A in the same assay as above.
Method: as §1
In the case of B2, the yeast fitness gain is reported as inactive: 0.0526.

Reference: the supplement of paper PMC11741623
